Reference: publication PMC4336329 (PLoS ONE, 2015)
In all, about 310,000 compounds went through this assay and about 14,000 (4.5%) showed an effect of 50% or more. The effect is printed as a negative number. The list shows a part of the results.

target: human ether-à-go-go-related gene (hERG) potassium channel (human, UniProt Q12809); assay: primary screen, population patch clamp on CHO cells stably expressing hERG
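Further: peak tail current of the secondary pulse compared with the same well before compound.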

Chain of human ether-à-go-go-related gene (hERG) potassium channel (Q12809 whole entry, looked up): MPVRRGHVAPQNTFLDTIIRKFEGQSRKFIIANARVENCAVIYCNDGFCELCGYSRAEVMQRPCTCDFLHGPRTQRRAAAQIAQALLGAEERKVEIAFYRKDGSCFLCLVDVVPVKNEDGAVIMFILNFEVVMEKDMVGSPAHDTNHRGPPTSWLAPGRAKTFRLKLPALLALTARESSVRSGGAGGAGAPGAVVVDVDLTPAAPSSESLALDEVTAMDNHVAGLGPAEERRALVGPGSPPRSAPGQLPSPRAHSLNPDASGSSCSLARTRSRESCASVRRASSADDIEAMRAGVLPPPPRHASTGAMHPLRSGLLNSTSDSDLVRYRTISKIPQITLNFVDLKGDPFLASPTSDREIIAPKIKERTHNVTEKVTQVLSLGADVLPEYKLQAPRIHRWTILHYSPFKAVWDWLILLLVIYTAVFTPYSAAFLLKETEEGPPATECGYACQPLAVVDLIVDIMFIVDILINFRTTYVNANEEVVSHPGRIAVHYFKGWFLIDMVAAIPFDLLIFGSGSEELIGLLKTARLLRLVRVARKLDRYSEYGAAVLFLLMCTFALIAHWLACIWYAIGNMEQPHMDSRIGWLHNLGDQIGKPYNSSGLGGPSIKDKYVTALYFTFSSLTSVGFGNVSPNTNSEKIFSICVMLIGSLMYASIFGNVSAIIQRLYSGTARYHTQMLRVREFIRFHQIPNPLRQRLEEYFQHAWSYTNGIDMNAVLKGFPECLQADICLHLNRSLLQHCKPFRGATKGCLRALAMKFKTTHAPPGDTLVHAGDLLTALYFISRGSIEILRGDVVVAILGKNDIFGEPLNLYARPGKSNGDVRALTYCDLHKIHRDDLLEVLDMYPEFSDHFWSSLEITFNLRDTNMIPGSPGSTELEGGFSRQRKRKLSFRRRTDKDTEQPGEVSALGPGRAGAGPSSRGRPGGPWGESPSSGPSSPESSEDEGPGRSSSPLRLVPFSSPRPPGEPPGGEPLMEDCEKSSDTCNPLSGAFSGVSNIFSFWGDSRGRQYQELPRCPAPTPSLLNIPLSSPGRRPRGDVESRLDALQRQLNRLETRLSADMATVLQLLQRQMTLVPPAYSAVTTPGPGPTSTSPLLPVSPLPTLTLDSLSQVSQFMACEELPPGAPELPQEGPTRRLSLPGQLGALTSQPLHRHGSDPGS

SMILES	hERG current change (%, negative = inhibition) at 10uM [%]
Cc1ccc(Nc2nnc(C(C)(C)C)c(=O)n2N)cc1	1.06
COc1cc2[nH]c(=S)nc(NC3CCCCCC3)c2cc1OC	2.9
CCOC(=O)C(C(=O)OCC)C(C#N)c1ccccc1 (stereo not drawn)	0.0132
CC/C(O)=C1\C(=O)CC(C)(C)CC1=Nc1ccccc1C	1.26
Cc1cc(-c2n[nH]c(=S)n2-c2ccc(C)c(C)c2)no1	7.28
Cn1cc([N+](=O)[O-])c(C(=O)N/N=C\c2c[nH]c3ccccc23)n1	-2.14
COc1ccc(CNC(=O)CN(C)S(=O)(=O)c2ccccc2)cc1	-12.3
COc1ccc(C(=O)C2CCCN(Cc3cc(Cl)ccc3O)C2)c(OC)c1 (stereo not drawn)	-26.8
Cc1c(NC(=O)CSc2ccccn2)c(=O)n(-c2ccccc2)n1C	7.95
COC(=O)c1cc2sc(Cl)cc2n1CC(=O)NCC1CCCO1 (stereo not drawn)	-12.8
CCc1ccc(S(=O)(=O)Nc2cc3c(cc2N2CCCCC2)n(C)c(=O)c(=O)n3C)cc1	-85.6
Cc1cccc(NC(=O)C2(C)CC3c4ccccc4C2c2ccccc23)c1 (stereo not drawn)	9.5
COC(=O)Cc1c(C)c2ccc(OC(=O)c3ccccc3)cc2oc1=O	-8.51
COc1cc(/C=C2\SC(=Nc3ccccc3)N(Cc3ccco3)C2=O)ccc1OC(C)C(=O)O (stereo not drawn)	4.06
Cc1cc(=O)[nH]c(SCCCOc2ccc3c(c2)CCC3)n1	-2.72
COc1cccc(N(C(=O)c2ccco2)C(C(=O)NC2CCCC2)c2ccc(N(C)C)cc2)c1 (stereo not drawn)	-9.47
COc1cccc(CNc2cc(C)ccn2)c1O	0.891
CC1CN(C(=S)Nc2ccc(Cl)cc2)CC(C)O1 (stereo not drawn)	10.5
COc1cccc(CN(C)Cc2cc(=O)oc3cc(O)c(Cl)cc23)c1.O=C(O)C(=O)O	6.61
COc1ccc(CCN(Cc2nc(-c3ccccc3)no2)Cc2nc(-c3ccccc3)no2)cc1OC	-3.37
CCOc1ccc(N2CC(C(=O)Nc3nnc(Cc4ccc(OC)c(OC)c4)s3)CC2=O)cc1 (stereo not drawn)	-1.44
Cc1nc2scc(-c3ccco3)c2c(=O)n1/N=C/N(C)C	-3.54
Cc1cc(C)cc(NC(=S)NCc2ccc3c(c2)OCO3)c1	-8.9
COC(=O)c1ccc(COc2ccccc2/C=C(\C#N)C(=O)Nc2c(C)cc(C)cc2C)cc1	8.56
